Experimental findings from PMC7129073 (Clinical Microbiology and Infection, 2015) are described below.

Experiment [1] relates to U. Urealyticum (UU). The following applies: 146 strains.
The subject of experiment [2] is M. hominis (MH). To be noted: 38 strains.

With `CN(C)[C@@H]1C(O)=C(C(N)=O)C(=O)[C@@]2(O)C(O)=C3C(=O)c4c(O)cccc4[C@@](C)(O)[C@H]3C[C@@H]12` [tetracycline], the “number of resistant strains” value in experiment [1] is listed as “no strains resistant”; in experiment [2], 1 strains.
In the case of `CC1COc2c(N3CCN(C)CC3)c(F)cc3c(=O)c(C(=O)O)cn1c23` (stereo not shown) [ofloxacin], the “number of resistant strains” value in experiment [1] and in experiment [2] was 3 strains in each case.
